Out of some 360,000 compounds screened, about 17,000 (4.7%) were called active. Inconclusive means that the source gave no clear call. Such entries were picked first, then a sample of the others. Rule as the data show it: active = activity change below about -50%; inconclusive = mostly about -30% to -49%; inactive = weaker than that. Where a SMILES comes first, the peptide text is derived from it. [ ]: non-standard residue; d: D form. The star is where a group is joined. Ac5c = NC1(C(=O)O)CCCC1; Cbz = O=C(OCc1ccccc1)*
assay: qHTS for Inhibitors of Inflammasome Signaling: IL-1-beta AlphaLISA Primary Screen; settings: THP-1 LPS/ATP IL-1B secretion, 16 h; at 57.5 µM, hits give low values
Summary of the method: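 THP-1 cells pretreated 1 hr with compounds (up to 57.5 uM final), then stimulated with LPS (250 ng/mL final) plus ATP (1.25 mM final); secreted IL-1B measured by AlphaLISA after 16 hr, decreased signal indicating inhibition.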
% is scaled to controls: 0 for no effect and ±100 for the full control effect.

| SMILES | activity change |
| --- | --- |
| CCc1cccc2c(N=O)c(O)[nH]c12 | active: -64.2% |
| O=S(=O)(Nc1cccc(-c2ccc3nncn3n2)c1)c1cc(F)ccc1F | inactive: -6.78% |
| Cc1ccc(NC(=O)CN(C)CC(=O)Nc2sc3c(c2C(N)=O)CCC3)cc1 | inactive: -28.4% |
| O=C(Nc1ccc2oc(-c3ccccc3F)nc2c1)c1ccco1 | inconclusive: -42.7% |
| O=C1c2ccccc2C(=O)c2c1cccc2N1CCN(CCO)CC1 | active: -59.1% |
| COc1cc(NC(=O)c2ccccc2F)c(OC)cc1NC(=O)CN1CCCCC1 | active: -57.5% |
| Cc1cc(C)cc(OCC(=O)N/N=C/c2ccncc2)c1 | inactive: -0.577% |
| Cc1cccc(-c2cccc(NC(=O)C3CCCN(C(=O)c4csc(C)n4)C3)c2)c1 (configuration not stated) | inconclusive: -46.1% |
| CC(C)Nc1ncnc2c1cnn2-c1ccccc1 | inconclusive: -33.6% |
| COc1ccc(CCNC(=O)C2CCCN(Cc3nc(-c4cccc(Cl)c4)oc3C)C2)cc1OC (configuration not stated) | inconclusive: -37% |
| C[C@]12c3[nH]c4cc(-c5ccco5)ccc4c3CCN1C(=O)[C@@H](CC(=O)NCCCn1ccnc1)C[C@@H]2C(=O)N1CCCCC1 | inconclusive: -39.3% |
| Nc1ncc(CN2CCCC(C(=O)Nc3ccc(-c4ccco4)cc3)C2)cn1 (configuration not stated) | inconclusive: -40.8% |
| CCCCn1c(=O)[nH]c(=O)c2c1nc(CN1C(=O)c3ccccc3S1(=O)=O)n2CCC | inactive: -3.32% |
| O=C(CSc1nc2nc(-c3cccs3)cc(C(F)(F)F)c2c(=O)[nH]1)Nc1c(F)c(F)c(F)c(F)c1F | inactive: -8% |
| CCCN(CC(=O)Nc1ccccc1C)C(=O)c1ccc2[nH]c3c(c2c1)CC(C)CC3 (configuration not stated) | inconclusive: -43.2% |
| Cc1ccccc1CSc1ccc2nnc(-c3ccccn3)n2n1 | inconclusive: -39.7% |
| CC(C)CC1C(=O)N(Cc2cn(Cc3ccco3)nn2)CCS(=O)(=O)N1Cc1ccc(-c2ccncc2)cc1 (configuration not stated) | inconclusive: -42.7% |
| CCOC(=O)CNC(=O)C1(NC(=O)CNC(=O)OCc2ccccc2)CCCC1 (Cbz-Gly-[Ac5c]-Gly-OEt) | inconclusive: -45.7% |
| NC(CCc1ccccc1)c1csc(NC(=O)NCC2CCCCC2)n1 (configuration not stated) | inconclusive: -32.8% |
| Cc1ccc(C)c(NS(=O)(=O)c2cc(C(=O)Nc3cccc(N(C)S(C)(=O)=O)c3)ccc2C)c1 | inactive: -0.329% |
| COC(=O)[C@]1(Cc2ccccc2)N[C@H](CN(C)C(=O)Nc2ccc(C)cc2)[C@@H]2C(=O)N(C)C(=O)[C@@H]21 | inactive: 34.2% |

| SMILES | activity change |
| --- | --- |
| O=C(NCc1ccco1)c1cc2cc(Br)ccc2o1 | inconclusive: -42.2% |
| CCCC1CCc2[nH]nc(C(=O)NN)c2C1 (configuration not stated) | inactive: -18.1% |
| O=[N+]([O-])c1ccc(-c2cnc(SCc3ccccc3Cl)[nH]2)cc1 | inactive: -7.67% |
| CC1CCN(S(=O)(=O)c2ccc3c(c2)N(CC(=O)NCCCOC(C)C)C(=O)CS3)CC1 | inconclusive: -45.8% |
| CC(C)(C)c1cc[n+](C2=C([O-])c3ccccc3C(=O)/C2=N\S(=O)(=O)c2cccs2)cc1 | active: -87.8% |
| Cc1ccc(NC(=O)CSCc2cc(=O)n3cc(C)sc3n2)cc1 | inactive: 8.58% |
| CC(C)CCC(C)NC(=O)CN1C(=O)NC(C)(c2ccc3ccccc3c2)C1=O (configuration not stated) | inconclusive: -48.6% |
| COc1ccccc1N(C)S(=O)(=O)c1ccc(C(=O)NCc2ccccc2CN2CCCC2)cc1 | inconclusive: -36.3% |
| CC(=O)c1cccc(NC(=O)Cc2ccc3c(c2)CCCC3)c1 | inconclusive: -42.3% |
| O=C(O)c1ccccc1C(=O)NCC(O)COc1ccc(Cl)cc1 (configuration not stated) | inconclusive: -33.1% |
| C[C@@H](NC(=O)Cn1ccc(N)nc1=O)c1cccc2ccccc12 | inactive: -7.76% |
| C=CCOc1cccc(/C=C2\C(=O)N(Cc3ccc(C)cc3)C(C)=C2C(=O)OC)c1 | active: -90.9% |
| O=C(Nc1cc(S(=O)(=O)N2CCOCC2)ccc1N1CCOCC1)c1ccccc1Cl | inactive: -7.8% |
| Brc1c(CSc2nncc3ccccc23)nc2ccccn12 | active: -74% |
| c1ccc(-c2cn3nc(-c4ccccc4)sc3n2)cc1 | inactive: -4.04% |
| CN(Cc1ccc2ccccc2c1)C(=O)c1ccc(C(F)(F)F)cc1 | inconclusive: -45.4% |
| O=C(NCCc1ccccc1)C(=O)NC1CCCCC1 | inconclusive: -32.1% |
| O=C(/C=C/c1c(F)cccc1Cl)NCCCN1CCOCC1 | inactive: 16.1% |
| O=C(CN1CCN(c2cccc(Cl)c2)CC1)Nc1ccc(S(=O)(=O)N2CCOCC2)cc1 | inconclusive: -38.7% |
| c1ccc(-c2ccccc2OCCOCCN2CCCCC2)cc1 | inconclusive: -36.2% |
| CS(=O)(=O)Nc1cccc(NC(=O)c2cccc3c(-c4cccc(C(N)=O)c4)coc23)c1 | inconclusive: -34.2% |
